Measured values: the supplement of paper PMC4967469

Columns and labels:
Test in all cases: Viability of human cancer cell lines after 72 h of drug (GDSC screen)
Vinorelbine = compound: CCC1=C[C@@H]2CN(C1)Cc1c([nH]c3ccccc13)[C@@](C(=O)OC)(c1cc3c(cc1OC)N(C)[C@H]1[C@@](O)(C(=O)OC)[C@H](OC(C)=O)[C@]4(CC)C=CCN5CC[C@]31[C@@H]54)C2 [Vinorelbine]; details: top dose 0.064 µM; top dose inferred
Method: (§1)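 Human cancer cell lines in 384-well plates, medium with 10% serum, drug for 72 h over a 256-fold dose range (nine 2-fold or five 4-fold steps up to the top dose). Adherent lines were fixed and stained with the nucleic acid dye Syto60, suspension lines read with resazurin; signal relative to control wells, capped at 0 and 100%. One two-parameter sigmoid per drug and line, fitted in a mixed model over all curves with the slope shared within a line.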

AG-014699 = compound: CNCc1ccc(-c2[nH]c3cc(F)cc4c3c2CCNC4=O)cc1 [AG-014699]; details: top dose 5 µM; top dose inferred
Method: as §1

NU-7441 = compound: O=c1cc(N2CCOCC2)oc2c(-c3cccc4c3sc3ccccc34)cccc12 [NU-7441]; details: top dose 2 µM; top dose inferred
Method: as §1

QL-XI-92 = compound: C=CC(=O)Nc1cc(NC(=O)c2ccc(C)c(NC(=O)c3ccno3)c2)cc(C(F)(F)F)c1 [QL-XI-92]; details: top dose 10.24 µM; top dose inferred
Method: as §1

S-Trityl-L-cysteine = compound: N[C@@H](CSC(c1ccccc1)(c1ccccc1)c1ccccc1)C(=O)O [S-Trityl-L-cysteine]; details: top dose 5.12 µM; top dose inferred
Method: as §1

XL-184 = compound: COc1cc2nccc(Oc3ccc(NC(=O)C4(C(=O)Nc5ccc(F)cc5)CC4)cc3)c2cc1OC [XL-184]; details: top dose 5.12 µM; top dose inferred
Method: as §1

Phenformin = compound: N=C(N)NC(=N)NCCc1ccccc1 [Phenformin]; details: top dose 4000 µM; top dose inferred
Method: as §1

WHI-P97 = compound: COc1cc2ncnc(Nc3cc(Br)c(O)c(Br)c3)c2cc1OC [WHI-P97]; details: top dose 10.24 µM; top dose inferred
Method: as §1

EHT 1864 = compound: O=c1cc(CN2CCOCC2)occ1OCCCCCSc1ccnc2cc(C(F)(F)F)ccc12 [EHT 1864]; details: top dose 10 µM; top dose inferred
Method: as §1

NB7 (neuroblastoma, adherent) showed an AUC (Vinorelbine) of 0.787, an IC50 (Vinorelbine) of 0.0293 µM and an AUC (AG-014699) of 0.942. The IC50 (AG-014699) was greater than 5 µM, the AUC (NU-7441) was 0.986 and the IC50 (NU-7441) was greater than 2 µM. It also gave an AUC (QL-XI-92) of 0.897, an IC50 (QL-XI-92) greater than 10.2 µM and an AUC (S-Trityl-L-cysteine) of 0.976. The IC50 (S-Trityl-L-cysteine) was greater than 5.12 µM, the AUC (XL-184) was 0.86 and the IC50 (XL-184) was 4.61 µM. It also gave an AUC (Phenformin) of 0.867, an IC50 (Phenformin) of 3900 µM and an AUC (WHI-P97) of 0.969. For the same cell line, the IC50 (WHI-P97) was greater than 10.2 µM, the AUC (EHT 1864) was 0.862 and the IC50 (EHT 1864) was 9.22 µM.
“NCI-H1355 (lung adenocarcinoma, adherent)” showed an AUC (Vinorelbine) of 0.478, an IC50 (Vinorelbine) of 0.0034 µM and an AUC (AG-014699) of 0.959. The IC50 (AG-014699) was greater than 5 µM, the AUC (NU-7441) was 0.894 and the IC50 (NU-7441) was greater than 2 µM. It also gave an AUC (QL-XI-92) of 0.967, an IC50 (QL-XI-92) greater than 10.2 µM and an AUC (S-Trityl-L-cysteine) of 0.657. It also gave an IC50 (S-Trityl-L-cysteine) of 1.06 µM, an AUC (XL-184) of 0.978 and an IC50 (XL-184) greater than 5.12 µM. It also gave an AUC (Phenformin) of 0.802, an IC50 (Phenformin) of 3110 µM and an AUC (WHI-P97) of 0.97. For the same cell line, the IC50 (WHI-P97) was greater than 10.2 µM, the AUC (EHT 1864) was 0.902 and the IC50 (EHT 1864) was greater than 10 µM.
“NCI-H1694 (small cell lung carcinoma, suspension)” was tested, and the AUC (Vinorelbine) was 0.846, the IC50 (Vinorelbine) was 0.0462 µM and the AUC (AG-014699) was 0.989. It also gave an IC50 (AG-014699) greater than 5 µM, an AUC (NU-7441) of 0.979 and an IC50 (NU-7441) greater than 2 µM. The AUC (QL-XI-92) was 0.809, the IC50 (QL-XI-92) was 5.31 µM and the AUC (S-Trityl-L-cysteine) was 0.896. For the same cell line, the IC50 (S-Trityl-L-cysteine) was greater than 5.12 µM, the AUC (XL-184) was 0.983 and the IC50 (XL-184) was greater than 5.12 µM. The AUC (Phenformin) was 0.621, the IC50 (Phenformin) was 536 µM and the AUC (WHI-P97) was 0.972. The IC50 (WHI-P97) was greater than 10.2 µM, the AUC (EHT 1864) was 0.988 and the IC50 (EHT 1864) was greater than 10 µM.
For “SKM-1 (haematopoietic neoplasm, suspension)”, the AUC (AG-014699) was 0.923, the IC50 (AG-014699) was greater than 5 µM and the AUC (NU-7441) was 0.778. It also gave an IC50 (NU-7441) of 0.899 µM, an AUC (S-Trityl-L-cysteine) of 0.977 and an IC50 (S-Trityl-L-cysteine) greater than 5.12 µM. For the same cell line, the AUC (EHT 1864) was 0.869 and the IC50 (EHT 1864) was greater than 10 µM.
Cell Line SNU-C2B (large intestine, adherent) has an AUC (AG-014699) of 0.972, an IC50 (AG-014699) greater than 5 µM and an AUC (NU-7441) of 0.969. The IC50 (NU-7441) was greater than 2 µM, the AUC (QL-XI-92) was 0.977 and the IC50 (QL-XI-92) was greater than 10.2 µM. The AUC (S-Trityl-L-cysteine) was 0.713, the IC50 (S-Trityl-L-cysteine) was 1.57 µM and the AUC (XL-184) was 0.964. For the same cell line, the IC50 (XL-184) was greater than 5.12 µM, the AUC (Phenformin) was 0.476 and the IC50 (Phenformin) was 210 µM. The AUC (WHI-P97) was 0.933 and the IC50 (WHI-P97) was greater than 10.2 µM.
In the case of SW872 (soft tissue, adherent), the AUC (Vinorelbine) is reported as 0.576, the IC50 (Vinorelbine) is reported as 0.00631 µM and the AUC (AG-014699) is reported as 0.987. The IC50 (AG-014699) was greater than 5 µM, the AUC (QL-XI-92) was 0.988 and the IC50 (QL-XI-92) was greater than 10.2 µM. The AUC (S-Trityl-L-cysteine) was 0.675, the IC50 (S-Trityl-L-cysteine) was 0.932 µM and the AUC (XL-184) was 0.965. For the same cell line, the IC50 (XL-184) was greater than 5.12 µM, the AUC (Phenformin) was 0.983 and the IC50 (Phenformin) was greater than 4000 µM. For the same cell line, the AUC (WHI-P97) was 0.983, the IC50 (WHI-P97) was greater than 10.2 µM and the AUC (EHT 1864) was 0.956. It also gave an IC50 (EHT 1864) greater than 10 µM.
TGBC24TKB (biliary tract, adherent) was tested, and the AUC (Vinorelbine) was 0.744, the IC50 (Vinorelbine) was 0.0189 µM and the AUC (AG-014699) was 0.963. The IC50 (AG-014699) was greater than 5 µM, the AUC (QL-XI-92) was 0.989 and the IC50 (QL-XI-92) was greater than 10.2 µM. For the same cell line, the AUC (S-Trityl-L-cysteine) was 0.818, the IC50 (S-Trityl-L-cysteine) was 2.65 µM and the AUC (XL-184) was 0.889. For the same cell line, the IC50 (XL-184) was greater than 5.12 µM, the AUC (Phenformin) was 0.735 and the IC50 (Phenformin) was 1110 µM. For the same cell line, the AUC (WHI-P97) was 0.969, the IC50 (WHI-P97) was greater than 10.2 µM and the AUC (EHT 1864) was 0.95. For the same cell line, the IC50 (EHT 1864) was greater than 10 µM.
For “THP-1 (acute myeloid leukaemia, suspension)”, the AUC (NU-7441) was 0.959, the IC50 (NU-7441) was greater than 2 µM and the AUC (QL-XI-92) was 0.882. The IC50 (QL-XI-92) was 9 µM, the AUC (S-Trityl-L-cysteine) was 0.985 and the IC50 (S-Trityl-L-cysteine) was greater than 5.12 µM. It also gave an AUC (WHI-P97) of 0.524, an IC50 (WHI-P97) of 0.739 µM and an AUC (EHT 1864) of 0.942. For the same cell line, the IC50 (EHT 1864) was greater than 10 µM.
U-87-MG (glioma, adherent) was tested, and the AUC (Vinorelbine) was 0.782, the IC50 (Vinorelbine) was 0.0319 µM and the AUC (AG-014699) was 0.984. For the same cell line, the IC50 (AG-014699) was greater than 5 µM, the AUC (NU-7441) was 0.97 and the IC50 (NU-7441) was greater than 2 µM. For the same cell line, the AUC (QL-XI-92) was 0.917, the IC50 (QL-XI-92) was greater than 10.2 µM and the AUC (S-Trityl-L-cysteine) was 0.981. It also gave an IC50 (S-Trityl-L-cysteine) greater than 5.12 µM, an AUC (Phenformin) of 0.839 and an IC50 (Phenformin) of 3430 µM. For the same cell line, the AUC (WHI-P97) was 0.983, the IC50 (WHI-P97) was greater than 10.2 µM and the AUC (EHT 1864) was 0.921. For the same cell line, the IC50 (EHT 1864) was greater than 10 µM.

A lower IC50 marks a more sensitive line; where the fit passes the top or lowest dose, that dose stands as a limit. AUC is the area under the same curve over the 256-fold range up to the top dose, as a fraction: 1 means no effect, lower means more sensitive. The top dose, if marked as inferred, was derived from the fitted curves, not read from the paper.
